# Reference: PubChem BioAssay AID1460 (National Center for Advancing Translational Sciences (NCATS), 2008)
# About 5,800 (2.1%) of roughly 270,000 compounds were called active. This list was built around the results that the source calls inconclusive (neither active nor inactive); the mix of calls is not that of the screen. The call rests on the fitted dose curve; in most records, active means well fitted inhibition curve with a large enough effect; inconclusive means small, poorly fitted or top-dose-only effect; inactive means flat fitted curve, though single readings scatter. Potencies of inconclusive entries are doubtful fits and often do not repeat.
# Molecular target: Microtubule-associated protein tau (Homo sapiens) (UniProt P10636)
# Chain of UniProt P10636 (P10636 whole entry, looked up): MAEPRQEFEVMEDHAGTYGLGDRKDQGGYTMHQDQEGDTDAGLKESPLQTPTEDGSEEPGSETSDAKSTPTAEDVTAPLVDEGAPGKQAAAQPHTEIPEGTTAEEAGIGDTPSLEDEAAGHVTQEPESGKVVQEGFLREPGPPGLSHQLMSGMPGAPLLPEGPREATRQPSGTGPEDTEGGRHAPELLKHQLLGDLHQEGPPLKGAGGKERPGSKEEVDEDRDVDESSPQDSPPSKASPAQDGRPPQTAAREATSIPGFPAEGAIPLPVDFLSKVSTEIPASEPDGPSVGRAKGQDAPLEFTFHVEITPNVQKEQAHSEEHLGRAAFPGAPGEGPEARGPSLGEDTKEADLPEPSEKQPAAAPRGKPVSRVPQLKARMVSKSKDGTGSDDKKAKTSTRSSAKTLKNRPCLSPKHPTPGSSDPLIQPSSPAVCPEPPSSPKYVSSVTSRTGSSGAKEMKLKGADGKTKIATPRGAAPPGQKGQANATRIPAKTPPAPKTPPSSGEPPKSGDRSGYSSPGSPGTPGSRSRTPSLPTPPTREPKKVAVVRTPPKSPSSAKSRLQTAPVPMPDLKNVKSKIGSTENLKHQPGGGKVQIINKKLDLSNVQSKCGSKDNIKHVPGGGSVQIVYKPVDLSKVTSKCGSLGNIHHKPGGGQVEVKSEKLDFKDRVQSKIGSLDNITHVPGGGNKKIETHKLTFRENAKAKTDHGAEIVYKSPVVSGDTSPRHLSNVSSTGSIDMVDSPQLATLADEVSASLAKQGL
# Experiment: qHTS for Inhibitors of Tau Fibril Formation, Thioflavin T Binding; further: nearly all actives have a fitted effect of over 55% in size
# Settings: recombinant tau K18 P301L (four-repeat tau fragment), heparin-induced fibrillization, ThT fluorescence; series mostly up to 57.4 µM
# Outline: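 Heparin-induced fibrillization of the P301L-mutant K18 repeat-domain fragment of human tau was followed by ThT binding in quantitative high-throughput format.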
# Potency means the concentration at half of the fitted maximal effect; tags describe the fitted curve by direction and shape.
row,SMILES,Potency
1,COc1cccc(-n2cc(C(=O)Oc3ccc(F)cc3)c3ccccc3c2=O)c1,inactive
2,COc1cc(C(=O)Nc2cccc(OCc3cc(=O)n4c(C)csc4n3)c2)cc(OC)c1OC,inactive
3,O=C(CSc1ccccc1C(=O)O)NC1CCCCCC1,inactive
4,COc1ccc(C)cc1S(=O)(=O)Nc1cccc(-c2ccc(N3CCCC3)nn2)c1,inactive
5,COc1ccc(CNC(=O)c2sc(=S)n(-c3ccc(OC)cc3)c2N)cc1,inactive
6,O=[N+]([O-])c1cc(S(=O)(=O)C(F)(F)F)ccc1Sc1nc2ccccc2[nH]1,active: 25.1 µM
7,Cc1nn(Cc2ccccc2)c(C)c1NC(=O)c1cc2nc(-c3ccco3)cc(C(F)(F)F)n2n1,"inconclusive: 31.6 µM [inhibitor, partial curve]"
8,O=C(NC1CCCCC1)Sc1ccc(Cl)cc1,"inconclusive: 28.2 µM [inhibitor, single point]"
9,COc1ccc(-c2[nH]n(-c3ccc([N+](=O)[O-])cc3)c(=O)c2C=NCC2CCCO2)cc1 (stereo not given),"inconclusive: 7.08 µM [inhibitor, full curve]"
10,Cn1c(-c2nc(-c3ccccc3)cs2)nc2ccccc21,inactive
11,C=CCSc1nc2ccsc2c(=O)n1-c1cccnc1,inactive
12,O=C1CC(c2ccc(Cl)cc2)CC(=O)C1CS(=O)(=O)c1ccccc1 (stereo not given),"inconclusive: 4.47 µM [inhibitor, single point]"
13,Cc1ccc2c(c1)C(CCN)C(=O)N2Cc1ccccc1 (stereo not given),inactive
14,CC1CN(C(=O)c2cc(S(=O)(=O)N3CCCC3)c(Cl)cc2Cl)CC(C)O1 (stereo not given),inactive
15,Nc1nc(SCC(=O)c2ccc([N+](=O)[O-])cc2)n[nH]1,inactive
16,O=C(Nc1ccc(NC(=S)NC(=O)c2cccs2)cc1)c1ccco1,"inconclusive: 0.891 µM [inhibitor, full curve]"
17,CCOc1cc(N2CCOCC2)c(OCC)cc1NC(=O)C(C)C,inactive
18,Cc1ccccc1Cn1c(=N)n(CC(=O)c2ccc([N+](=O)[O-])cc2)c2ccccc21,"inconclusive: 7.94 µM [inhibitor, partial curve]"
19,N/C(Cc1ccc(Cl)cc1Cl)=N\OC(=O)c1ccccc1,inactive
20,O=C1/C(=C/c2ccncc2)SC(=S)N1Nc1ccccc1,active: 17.8 µM
21,Cc1cccc(NC(=O)CSc2nc3ccccc3c3nc(CCn4cncc4C)nn23)c1,"inconclusive: 25.1 µM [inhibitor, single point]"
22,CCn1ncc(C2=NOC(C(=O)NCc3ccc(OC)cc3)C2)c1C (stereo not given),inactive
23,Nc1cc(Cl)ccc1N1CCCCCC1,inactive
24,CC(C)Oc1ccc(CNC(=O)C2CCN(C(=O)N3CCOc4ccc(Cl)cc43)CC2)cc1,"inconclusive: 25.1 µM [inhibitor, partial curve]"
25,CC1=CC(=O)c2c(O)ccc(O)c2C1=O,"inconclusive: 17.8 µM [inhibitor, single point]"

row,SMILES,Potency
1,Cc1ccccc1-c1nc(NC(=O)CSc2ncnc3sc4c(c23)CCCC4)ns1,inactive
2,O=C(CNC(=O)c1ccccc1)N/N=C/c1cc(Br)ccc1O,"inconclusive: 31.6 µM [inhibitor, single point]"
3,COc1cc(C(=O)NCCc2ccc(F)cc2)c([N+](=O)[O-])cc1OC,inactive
4,Cc1cccc(N2CCN(C(c3ccc(F)cc3)c3nnc(-c4ccccc4)o3)CC2)c1C (stereo not given),"inconclusive: 35.5 µM [inhibitor, single point]"
5,COc1ccc(N2CCc3c(C)nc(SC)nc32)cc1,"inconclusive: 11.2 µM [inhibitor, partial curve]"
6,CCN1CCN(C(=O)Cn2ncc3c4ccccc4n(Cc4ccccc4F)c3c2=O)CC1,inactive
7,CCOC(=O)C1CCCN(C(=O)c2cc(-c3ccc(C)cc3)on2)C1 (stereo not given),inactive
8,CCc1ccc(OCC(=O)NCC(c2ccc(Cl)cc2)N2CCOCC2)cc1 (stereo not given),inactive
9,O=[N+]([O-])c1ccc2c(c1)nc1n2CCN(CC2CCCO2)C1 (stereo not given),"inconclusive: 12.6 µM [inhibitor, partial curve, poor fit]"
10,CC1(C)Cc2c(c(N3CCOCC3)nc3snc(Br)c23)CO1,"inconclusive: 25.1 µM [inhibitor, single point]"
11,CCN(CC)c1ccc(/C=N/Nc2nn[nH]n2)cc1,"inconclusive: 39.8 µM [inhibitor, partial curve]"
12,CCOC(=O)c1ccc2ncc(C(=O)OCC)c(NCCc3ccc(OC)c(OC)c3)c2c1,"inconclusive: 14.1 µM [inhibitor, partial curve]"
13,Cc1cc([N+](=O)[O-])cc2c1NCC1CC=CC21 (stereo not given),"inconclusive: 35.5 µM [inhibitor, single point]"
14,CC(C)c1ccc(NC(=O)c2cc3c(=O)oc4ccccc4c3s2)cc1,"inconclusive: 25.1 µM [inhibitor, single point]"
15,Cc1ccc2c(c1)-c1onc(C(=O)N3CCN(c4cccc(C)c4C)CC3)c1CO2,"inconclusive: 0.631 µM [inhibitor, full curve]"
16,CCn1c(N2CCC(Cc3ccccc3)CC2)nc2c1c(=O)[nH]c(=O)n2C,"inconclusive: 31.6 µM [inhibitor, partial curve, poor fit]"
17,Cc1[nH]n(-c2ccc([N+](=O)[O-])cc2)c(=O)c1C=NCCN1CCN(C(=O)c2ccccc2)CC1,"inconclusive: 17.8 µM [inhibitor, partial curve]"
18,CCN(CCNC(=O)C1CCCN(Cc2nc(-c3ccc(OC)cc3)oc2C)C1)c1ccccc1 (stereo not given),"inconclusive: 22.4 µM [inhibitor, partial curve]"
19,Cc1cc(C)c(S(=O)(=O)NCC(c2ccco2)N2CCN(c3ccccc3)CC2)c(C)c1 (stereo not given),"inconclusive: 15.8 µM [inhibitor, single point]"
20,COc1ccc(Nc2ncnc3c2cnn3C)c(OC)c1,inactive
21,O=C(NCCSc1c(-c2ccc(Cl)cc2)[nH]c2ccccc12)c1ccc(S(=O)(=O)N2CCOCC2)cc1,inactive
22,O=C(CSc1nnc2sc3ccccc3n12)N1CCN(c2ccccc2)CC1,"inconclusive: 22.4 µM [inhibitor, partial curve]"
23,CCOc1cc(C(=O)N/N=C(\C)Cc2ccc(OC)cc2)cc(OCC)c1OCC,inactive
24,COCCCNC(=O)/C=C/c1c(Cl)cccc1Cl,inactive
25,Cc1cc(C)n(-c2ccc(C(=O)Nc3nnc(C)s3)cc2)n1,"inconclusive: 15.8 µM [inhibitor, partial curve]"

row,SMILES,Potency
1,CC1=CN2C(=N)/C(=C/c3ccc(C)o3)C(=O)N=C2S1,"inconclusive: 25.1 µM [inhibitor, partial curve]"
2,COc1ccccc1NC(=O)Nc1ccc(-n2ccc(C(F)(F)F)n2)cc1,"inconclusive: 31.6 µM [inhibitor, single point]"
3,CCNC(=O)c1c(NC(=O)c2cc(=O)c3ccc(C)c(C)c3o2)sc2c1CCCC2,inactive
4,Oc1c(C=C2N=c3ccccc3=N2)sc(=S)n1C1CCCC1,inactive
5,Cc1ccc(Cl)cc1N1CCN(C(=O)C(C)n2ncn3cccc3c2=O)CC1 (stereo not given),"inconclusive: 20 µM [activator, single point]"
6,CCCC1C2CN(C(C)C)CC=C2C(C#N)=C(N)C1(C#N)C#N (stereo not given),"inconclusive: 17.8 µM [inhibitor, partial curve]"
7,CC(=O)Nc1ccc(N/C=C/C(=O)C(C)(C)C)cc1,"inconclusive: 25.1 µM [inhibitor, single point]"
8,[O-]/C(=C(\C(=S)Nc1ccc(SC(F)F)cc1)[n+]1cccc(CO)c1)c1ccc(Cl)s1,active: 25.1 µM
9,CCCCN1C(=O)/C(=C/C=C2\N(C)c3ccccc3C2(C)C)SC1=S,active: 6.31 µM
10,COc1ccc(CCN2C(=O)CC(Nc3ccc(N4CCOCC4)cc3)C2=O)cc1OC (stereo not given),active: 12.6 µM
11,O=C(C/C=N/OCc1ccc(Cl)cc1Cl)c1ccccc1,"inconclusive: 14.1 µM [inhibitor, partial curve, poor fit]"
12,CC(=O)Nc1c(C(=O)Nc2ccccc2F)oc2ccccc12,inactive
13,O=C(Nc1sc2c(c1C(=O)NC1CC1)CCCCCC2)c1ccco1,"inconclusive: 39.8 µM [inhibitor, single point]"
14,CC(=O)Nc1ccc(C2=NN(C)C(=NCc3ccccc3)SC2)cc1,"inconclusive: 6.31 µM [inhibitor, partial curve]"
15,Cc1occc1-c1nnc(SCC(=O)c2ccc(Cl)cc2)n1C,"inconclusive: 20 µM [inhibitor, single point]"
16,Cc1cccc(N(Cc2cc3ccccc3[nH]c2=O)C(=O)c2ccco2)c1C,inactive
17,CCn1c(SCC(=O)c2ccc(CNC(C)=O)o2)nnc1-c1cccs1,inactive
18,COc1ccccc1NS(=O)(=O)c1cc(NC(=O)Nc2ccccc2)ccc1N1CCCCC1,inactive
19,O=C(COc1ccccc1)NNC(=S)NC(=O)c1ccc(Cl)cc1Cl,"inconclusive: 15.8 µM [inhibitor, partial curve]"
20,CCc1ccccc1NC(=O)/C(C#N)=C\c1ccc(Sc2ccccc2)o1,"inconclusive: 14.1 µM [inhibitor, partial curve]"
21,O=[N+]([O-])c1ccc(C2=NN(CCO)C(=Nc3ccc(OC(F)(F)F)cc3)SC2)cc1,active: 14.1 µM
22,Cc1n[nH]c(C)c1CCCCOc1ccccc1,inactive
23,CCN1CCc2nc(SCC(=O)Nc3ccc(OC)cc3)c(C#N)cc2C1,"inconclusive: 25.1 µM [inhibitor, partial curve]"
24,COC(=O)c1c(NC(=O)c2c(OC)cccc2OC)sc2c1CCCC2,"inconclusive: 4.47 µM [inhibitor, single point]"
25,Cc1cccc(N=C2Sc3nc4c(C)c(C)ccc4cc3CN2CCN2CCOCC2)c1,"inconclusive: 7.08 µM [inhibitor, partial curve]"
